# From paper PMC4336329 (PLoS ONE, 2015)
# Screen size: about 310,000 compounds; about 2,200 (0.71%) showed an effect of 50% or more. Effects have a minus sign here. The list shows a part of the results.
# Biological target: human ether-à-go-go-related gene (hERG) potassium channel (human, UniProt Q12809)
# Assay: primary screen, population patch clamp on CHO cells stably expressing hERG
# human ether-à-go-go-related gene (hERG) potassium channel, sequence (Q12809 whole entry, looked up): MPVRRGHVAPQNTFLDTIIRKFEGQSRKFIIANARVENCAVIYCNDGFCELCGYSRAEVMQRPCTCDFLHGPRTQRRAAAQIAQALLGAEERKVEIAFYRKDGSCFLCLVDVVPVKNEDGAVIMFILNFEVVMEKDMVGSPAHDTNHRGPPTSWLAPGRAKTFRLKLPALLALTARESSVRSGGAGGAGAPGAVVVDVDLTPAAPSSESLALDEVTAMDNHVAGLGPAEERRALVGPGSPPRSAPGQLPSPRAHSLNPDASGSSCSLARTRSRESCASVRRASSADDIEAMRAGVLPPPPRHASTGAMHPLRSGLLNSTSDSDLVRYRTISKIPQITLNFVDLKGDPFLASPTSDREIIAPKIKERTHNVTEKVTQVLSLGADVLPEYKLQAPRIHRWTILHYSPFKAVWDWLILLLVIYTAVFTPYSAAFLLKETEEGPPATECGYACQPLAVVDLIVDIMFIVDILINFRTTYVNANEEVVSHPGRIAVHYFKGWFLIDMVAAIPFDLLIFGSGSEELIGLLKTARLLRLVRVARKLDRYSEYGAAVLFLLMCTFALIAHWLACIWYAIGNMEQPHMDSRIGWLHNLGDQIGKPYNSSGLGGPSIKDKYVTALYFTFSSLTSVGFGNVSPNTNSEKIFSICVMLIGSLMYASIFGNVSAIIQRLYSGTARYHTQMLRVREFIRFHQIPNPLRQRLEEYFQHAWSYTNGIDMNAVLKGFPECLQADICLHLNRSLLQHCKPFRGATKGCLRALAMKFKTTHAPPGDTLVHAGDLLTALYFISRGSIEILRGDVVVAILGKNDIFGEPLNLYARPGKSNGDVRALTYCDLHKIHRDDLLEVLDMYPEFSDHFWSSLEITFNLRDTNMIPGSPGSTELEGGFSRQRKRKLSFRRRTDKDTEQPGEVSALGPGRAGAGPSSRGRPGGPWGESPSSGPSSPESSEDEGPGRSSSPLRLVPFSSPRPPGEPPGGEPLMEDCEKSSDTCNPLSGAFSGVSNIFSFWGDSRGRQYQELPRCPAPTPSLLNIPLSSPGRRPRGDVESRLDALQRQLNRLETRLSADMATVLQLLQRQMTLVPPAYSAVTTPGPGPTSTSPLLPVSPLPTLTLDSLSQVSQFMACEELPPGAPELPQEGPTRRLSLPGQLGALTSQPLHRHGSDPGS
row,SMILES,"hERG current change (%, negative = inhibition) at 1uM"
1,CN(C)C(=O)CSc1nnc([C@@H](N)Cc2ccccc2)o1.Cl,2.69%
2,Cn1c(SCc2ccc(Cl)cc2)nc(C(F)(F)F)cc1=O,24.5%
3,CC[NH+](CC)CC.Nc1ncnc2c1ncn2C1OC(COP(=O)([O-])O)C(O)C1O (centres unmarked),24%
4,Cc1ccc(C)c(OCc2nnc(NC(=O)c3ccco3)s2)c1,5.43%
5,Cc1cccc(C(=O)NC(=S)Nc2cccc3nc(C)ccc23)c1,8.01%
6,O=C(CSc1nnc2ccccn12)NCCc1ccc(F)cc1,2.54%
7,OCCNc1nc(NCCC2=CCCCC2)nc(N2CCOCC2)n1,-1.67%
8,CCn1c2ccc(F)cc2c2nnc(SCCN3CCOCC3)nc21,-20.9%
9,COc1cccc(CNCC(O)COc2ccc(C(=O)c3ccccc3)cc2)c1 (centres unmarked),9.92%
10,CCCCC(=O)NCCNc1nc2c(c(=O)n(C)c(=O)n2C)n1Cc1ccc(F)cc1,10.7%
11,Cc1ccc(CN2CCN(/N=C/c3cccn3C)CC2)c(C)c1,13.9%
12,Cc1ccccc1N=C1SCCN1C(=O)CN1C(=O)NC2(CCCC2)C1=O,0.16%
13,C/C1=C\CCC2C(/C=C(\C)CC1)OC(=O)C2CN1CCCCC1 (centres unmarked),12.9%
14,CCN(CC)c1ccc(/C=N/NC(=O)CNC(=O)/C=C/c2ccco2)cc1,4.77%
15,CC1(C)Cc2c(cnn2-c2ccc(F)cc2)C(NC(=O)C(C)(C)O)C1 (centres unmarked),12.6%
16,CC(=O)[C@@H]1[C@@H]2C(=O)N(c3ccc(F)c(Cl)c3)C(=O)[C@@H]2C2c3ccccc3C=CN21 (some centres unmarked),14.6%
17,OCCN1CN=C(Nc2nc3ccccc3o2)NC1,5.57%
18,CC(C)c1cc[n+](-c2nc([O-])sc2C=O)cc1,3.33%
19,COc1ccc(N2CCN(CC(O)COc3ccc(C)cc3C)CC2)cc1.Cl (centres unmarked),-54.6%
20,CCC(=O)Nc1nn(C)c2nc3c(C)cccc3cc12,-0.111%
21,CCC(Oc1ccccc1)C(=O)OCC(=O)N(CC)c1c(N)n(Cc2ccccc2)c(=O)[nH]c1=O (centres unmarked),16.1%
22,NS(=O)(=O)c1ccc(CNC(=O)Cc2cccs2)cc1,20.6%

row,SMILES,"hERG current change (%, negative = inhibition) at 1uM"
1,CCOc1ccccc1OCCCC(=O)Nc1cccc(-n2cnnn2)c1C,7.99%
2,COc1cc(CNc2ccc(O)cc2)cc(Br)c1OCc1ccccc1,20.4%
3,CC(=O)c1ccc(S(=O)(=O)Oc2ccc(-c3ccc(C(=O)O)cc3)cc2)cc1,15.2%
4,CCCCN(CCCC)Cc1ccc(C(=O)NNC(=O)Nc2ccccc2)o1,9.26%
5,O=C(COC(=O)/C=C/c1ccccc1)NCc1ccccc1Cl,19.3%
6,C=CCNc1nc(Nc2ccc(OC)cc2)nc(OCC)n1,10.2%
7,CCOC(=O)c1c(C)n(C)c2ccc(OCC(N)=O)cc12,12.9%
8,NNc1nc(-c2ccccc2)c2cc(Cl)ccc2n1,5.88%
9,COc1ccc2oc(C(=O)OCC(=O)NC(=O)NC(C)C)c(C)c2c1,15.6%
10,CCC(=O)Oc1ccc(C(=O)Nc2cccc(NC(=O)c3ccco3)c2)cc1,5.01%
11,CCOc1ccc2nc(N/C(N)=N/S(C)(=O)=O)nc(C)c2c1,6.17%
12,COc1ccc(Cl)cc1Nc1ncnc2sc(C)c(S(=O)(=O)N3CCC(C)CC3)c12,5.4%
13,Cc1ccc(N2CCN(C(=O)c3ccccc3NC(=O)C3CCCCC3C(=O)O)CC2)cc1 (centres unmarked),1.54%
14,Cn1c(NC(=O)c2cc(-c3ccc4c(c3)OCO4)nc3ccccc23)cc(=O)n(C)c1=O,2.87%
15,O=C(CN1CCC(NC(=O)C2CC2)CC1)Nc1ccccc1[N+](=O)[O-],14.5%
16,COc1ccc(C(CCN2CCCCC2)c2c(OC)cc(OC)c3c(-c4ccccc4)cc(=O)oc23)cc1 (centres unmarked),-4.48%
17,CC(=O)COC(=O)c1cccc(N2C(=O)C3C4C=CC(C4)C3C2=O)c1 (centres unmarked),2.21%
18,Cc1nc(-c2ccccc2)nc2[nH]c(=O)n(-c3ccccc3)c(=O)c12,13.7%
19,O=C(Oc1ccc(-c2cn3c(n2)SCC3)cc1)c1ccccc1,-1.03%
20,Cc1ccc(N2C(=O)CC(n3nc(C)cc3C)C2=O)cc1 (centres unmarked),-11.4%
21,COc1cc(-n2c(C)nc3cc(C(=O)NCC4CCCO4)ccc32)cc(OC)c1OC (centres unmarked),1.53%
22,Cn1c(=O)n(C)c2cc(NC(=O)COc3ccc(Cl)cc3)ccc21,-22.1%
